Test results as given in PubChem BioAssay AID686979 (National Center for Advancing Translational Sciences (NCATS), 2013).
Several values for one entry are separate records, joined by “and”; a condition that tells them apart may be missing. Identical values can stand only once. Screen size: about 420,000 compounds; about 50,000 (12%) were called active. This list was built around the results that the source calls inconclusive (neither active nor inactive); the mix of calls is not that of the screen. Calls come from the whole dose curve; as a rule, active = well fitted inhibition curve with a large enough effect; inconclusive = small, poorly fitted or top-dose-only effect; inactive = flat fitted curve, though single readings scatter. A potency beside an inconclusive call is a rough fit, not a confirmed value.
Potency is the fitted concentration of half-maximal effect; tags give direction and shape of the fitted curve.

Assay: qHTS for Inhibitors of human tyrosyl-DNA phosphodiesterase 1 (TDP1): qHTS in cells in presence of CPT; note: nearly all actives have a fitted effect of over 55% in size
Settings: chicken DT40 Tdp1-/-;hTDP1 cells + 20 nM CPT, ATP luminescence, 48 h; series mostly up to 46.2 µM
Method in brief: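 Cell growth measured by CellTiter-Glo luminescence after a minimum 48 h, 37 C compound exposure with 20 nM CPT in Tdp1-knockout DT40 cells stably expressing hTDP1, seeded 400/well; qHTS titration format.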
In the case of Cc1ccc(NC(=O)COc2ccccc2)cc1S(=O)(=O)N1CCCCC1, the Potency is reported as “inactive”. With Cc1cccc(CNC(=O)C2CCN(c3nnc(-n4c(C)ccc4C)s3)CC2)c1 the Potency was inconclusive: 29.1 µM [inhibitor, single point]. In the case of Cc1cccc(NC(=S)N(CCN2CCOCC2)Cc2ccccc2F)c1, the Potency is reported as inconclusive: 29.1 µM [inhibitor, single point]. With COc1ccc(Cl)cc1NC(=O)CCS(=O)(=O)c1ccc(Br)cc1 the Potency was inconclusive: 23.1 µM [inhibitor, single point]. With CCC(C)NCc1ccc(C(=O)OC)o1 (centres undefined) the Potency was inconclusive: 29.1 µM [inhibitor, single point]. For CO/N=C/C(=N\Nc1ccccc1)C(=O)c1ccccc1, the Potency was inconclusive: 18.4 µM [inhibitor, single point]. With CCn1ccnc1CN1CCCC(C(=O)c2ccc3c4c(cccc24)CC3)C1 (centres undefined) the Potency was active: 7.31 µM. In the case of COc1ccc(/C=N\NC(=O)c2ccc(F)cc2)cc1COc1cc(F)ccc1[N+](=O)[O-], the Potency is reported as inconclusive: 10.3 µM [inhibitor, single point]. For Cc1ccc(N2CC(NC(=O)c3ccc(S(=O)(=O)N4CCOCC4)cc3)CC2=O)cc1C (centres undefined), the Potency was inconclusive: 23.1 µM [inhibitor, single point]. In the case of CC(C)(Oc1ccc(Cl)cc1)C(=O)O/N=C(\N)c1ccncc1, the Potency is reported as inconclusive: 29.1 µM [inhibitor, single point]. In the case of O=C(O)c1ccc(N2CCCCCC2)c(N2C(=O)c3ccccc3C2=O)c1, the Potency is reported as “inactive”. In the case of O=S(=O)(N(Cc1ccccc1)[C@H](CO)Cc1ccccc1)N(Cc1ccccc1)[C@H](CO)Cc1ccccc1, the Potency is reported as inconclusive: 5.62 µM [inhibitor, full curve] and inconclusive: 5.8 µM [inhibitor, full curve]. With Cc1cc2oc(=O)c(CC(=O)O)c(C)c2c2occ(-c3ccc(F)cc3)c12 the Potency was “inactive”. In the case of COc1ccc(NS(=O)(=O)c2cc(Br)cc3c2N(C(C)=O)CC3)cc1, the Potency is reported as active: 8.2 µM. In the case of Cc1ccc2c(c1)c1nnc(SCC(=O)N3CCN(c4ccc(F)cc4)CC3)nc1n2CC(=O)O, the Potency is reported as “inactive”. With O=C(NCC(c1cccs1)N1CCOCC1)c1cccc([N+](=O)[O-])c1 (centres undefined) the Potency was “inactive”. With COc1ccc(OC)c(Nc2nc(N)c([N+](=O)[O-])c(N3CCOCC3)n2)c1 the Potency was inconclusive: 29.1 µM [inhibitor, single point]. For COc1ccc(CN(Cc2ccccc2)C(=O)CN2CCN(C)CC2)cc1COc1ccc(NC(C)=O)cc1, the Potency was inconclusive: 25.1 µM [inhibitor, single point]. With Cc1cccc(-c2noc(CN(C(=O)c3ccccc3Cl)C(C)C)n2)c1 the Potency was inconclusive: 18.4 µM [inhibitor, single point]. In the case of Cc1ccc(C)c(C(=O)Nc2ccncc2)c1, the Potency is reported as “inactive”. With COc1ccc(Cl)cc1NC(=O)CN(C)C(=O)CNC(=O)C12CC3CC(CC(C3)C1)C2 the Potency was inconclusive: 29.1 µM [inhibitor, single point]. With O=C(CCCN1C(=O)/C(=C/c2ccccc2Cl)SC1=S)NNC(=O)c1ccccc1Cl the Potency was inconclusive: 29.1 µM [inhibitor, single point]. For CCOc1ccccc1Nc1nnc(SCc2nnc(-c3cc(OC)c(OC)c(OC)c3)o2)s1, the Potency was inconclusive: 20.6 µM [inhibitor, single point]. With COC(=O)Cn1ncc2c(C)n(Cc3ccccc3)c(C)c2c1=O the Potency was inconclusive: 18.4 µM [inhibitor, single point]. With CCN1C(=O)C2(Nc3ccccc3-c3nc4ccccc4n32)c2cc(OC)ccc21 (centres undefined) the Potency was “inactive”. For O=C1c2cccnc2C(Nc2ccccc2Br)N1Cc1ccco1 (centres undefined), the Potency was inconclusive: 4.61 µM [inhibitor, partial curve]. In the case of CC(=O)N1c2ccc(S(=O)(=O)NCCC(=O)NCc3ccc(Cl)cc3)cc2CC1C (centres undefined), the Potency is reported as inconclusive: 29.1 µM [inhibitor, single point]. For Cc1cc(OC(=O)c2cccc(Br)c2)c([N+](=O)[O-])c(=O)[nH]1, the Potency was “inactive”. For O=C(c1ccc2c(c1)OCCO2)N(Cc1cccnc1)c1nc2c(F)cccc2s1, the Potency was active: 20.6 µM. With Cc1ccc(CNC(=O)C(=O)NCCC2CCCCN2S(=O)(=O)c2ccc(C)cc2)cc1 (centres undefined) the Potency was active: 23.1 µM. With CC1CCN(S(=O)(=O)c2ccc(C(=O)Nc3sccc3C(N)=O)cc2)CC1 the Potency was inconclusive: 20.6 µM [inhibitor, partial curve]. With Cc1c(C(=O)NN)nn(-c2ccc(Cl)cc2)c(=O)c1C#N the Potency was “inactive”. In the case of N#Cc1c(-c2ccccc2)nc2n1CCS2, the Potency is reported as “inactive”. With Cc1ccc(C)c(NC(=O)C(OC(=O)c2ccc(C)s2)c2ccccc2)c1 (centres undefined) the Potency was “inactive”. For O=C(COC(=O)CNC(=O)c1ccco1)NCc1ccc(F)cc1, the Potency was “inactive”. For O/N=C(\c1ccccn1)C1CC1c1ccccc1 (centres undefined), the Potency was inconclusive: 20.6 µM [inhibitor, single point]. For O=C1CCCN1CCCNS(=O)(=O)c1ccc(Cl)c(C(=O)N2CCOCC2)c1, the Potency was “inactive”. With COc1ccc(/C=C/C(=O)c2ccccc2)cc1Cn1nnc2ccccc21 the Potency was inconclusive: 29.1 µM [inhibitor, single point]. In the case of O=C1CC(Sc2cccs2)C(=O)N1c1ccccc1 (centres undefined), the Potency is reported as active: 3.66 µM. With CCC(=O)Nc1nnc(SCC(=O)Nc2ccc3c(c2)OCO3)s1 the Potency was inconclusive: 16.4 µM [inhibitor, partial curve]. In the case of COc1ccc(N2CCN(Cc3cc(=O)oc4cc5c(cc34)CCCC5)CC2)cc1, the Potency is reported as active: 20.6 µM. For COc1ccc(CCNC(=O)CCCn2c(=O)c3ccccc3n(Cc3ccc(F)cc3Cl)c2=O)cc1OC, the Potency was “inactive”. For Cc1ccc(CN2[C@H]3CCCC[C@@H]3OCCS2(=O)=O)cc1, the Potency was inconclusive: 14.1 µM [inhibitor, single point]. In the case of COc1ccc(-c2nc3cc(NC(=O)Cc4ccc(OC)c(OC)c4)ccc3o2)cc1, the Potency is reported as inconclusive: 25.9 µM [inhibitor, single point]. In the case of Cc1cccc(C(=O)N2CCN(c3ccc([N+](=O)[O-])c(N4CCOCC4)c3)CC2)c1, the Potency is reported as inconclusive: 16.4 µM [inhibitor, single point]. In the case of CC(O)CSc1nc2c(c(=O)n(C)c(=O)n2C)n1CCCc1ccccc1 (centres undefined), the Potency is reported as inconclusive: 10.3 µM [inhibitor, partial curve, poor fit]. With CN(C)c1ccc(NC(=O)Cn2cc3c(n2)CCCC3)cc1 the Potency was inconclusive: 20.6 µM [inhibitor, single point]. In the case of COc1ccc(Cn2c(CNS(=O)(=O)c3ccc4c(c3)CCCC4)nc3cccnc32)cc1, the Potency is reported as inconclusive: 18.4 µM [inhibitor, single point]. In the case of COc1ccccc1NS(=O)(=O)c1cc(NC(=O)c2sccc2C)ccc1N1CCCC1, the Potency is reported as inconclusive: 13 µM [inhibitor, partial curve, poor fit]. For COc1ccc(-c2nc3c4ccccc4ccn3c2Cc2ccsc2)cc1OC, the Potency was inconclusive: 20.6 µM [inhibitor, single point]. With Cc1ccc(CNc2nc3ccccc3c3nc(-c4cccc(C)c4)nn23)cc1 the Potency was “inactive”. In the case of COc1ccc(OCCCC(=O)N2CCCc3ccccc32)cc1, the Potency is reported as inconclusive: 29.1 µM [inhibitor, single point]. With C=C1c2ccccc2NC(=S)N1Cc1ccc2c(c1)OCO2 the Potency was “inactive”. With COc1ccc(C(=O)Nc2sc(C)c(C)c2CN2CC(C)OC(C)C2)cc1 (centres undefined) the Potency was “inactive”. With Cc1ccc2c(c1)c1c(c(=O)n(Cc3ccccc3)c(=O)n1Cc1cccc(C(F)(F)F)c1)n2C the Potency was inconclusive: 8.2 µM [inhibitor, partial curve]. In the case of CCOc1ccccc1NC(=O)c1ccc2[nH]c(C)c(C)c2c1, the Potency is reported as inconclusive: 16.4 µM [inhibitor, single point]. With COc1ccc(CNC(=O)CCc2c(C)nn(-c3ccc(N4CCCCC4)nn3)c2C)c(OC)c1 the Potency was inconclusive: 29.1 µM [inhibitor, single point]. In the case of CCCSc1oc(-c2cccs2)nc1S(=O)(=O)c1ccc(Cl)cc1, the Potency is reported as inconclusive: 25.9 µM [inhibitor, single point]. With Oc1ccccc1NCC(O)Cn1ccc2ccccc21 (centres undefined) the Potency was active: 16.4 µM. With Cc1ccc(-c2cc(C(=O)Nc3c(C)n(C)n(-c4ccccc4)c3=O)[nH]n2)c(O)c1C the Potency was “inactive”. For COc1cccc(C2c3[nH]c4ccccc4c3C[C@H]3C(=O)N(C4CC4)CC(=O)N23)c1 (some centres undefined), the Potency was inconclusive: 29.1 µM [inhibitor, single point]. With N#C/C(=C(/O)c1ccc(Cl)c([N+](=O)[O-])c1)c1nc2ccccc2[nH]1 the Potency was active: 14.6 µM. In the case of COC(=O)[C@]12CCCCC=C1N(Cc1ccccc1)C(=O)[C@H](CC(=O)NCC13CC4CC(CC(C4)C1)C3)C2, the Potency is reported as active: 18.4 µM. With C(=N\Nc1nn2cnnc2c2ccccc12)/c1ccco1 the Potency was inconclusive: 25.9 µM [inhibitor, partial curve]. For O=C(c1cnc(N2CCCCC2)c2ccccc12)N1CCN(c2ccccc2F)CC1, the Potency was active: 16.4 µM. For C=CCn1c(SCC(=O)c2ccc(CNC(C)=O)o2)nc2scc(C3CC3)c2c1=O, the Potency was inconclusive: 11.6 µM [inhibitor, partial curve]. With O=C(COC(=O)c1ccc(F)cc1F)NC(=O)Nc1ccc2c(c1)OCCO2 the Potency was “inactive”. In the case of CC(C)COC(=O)/C(C#N)=C/c1c[nH]c2ccccc12, the Potency is reported as inconclusive: 20.6 µM [inhibitor, single point]. For CCc1cc2c(=O)c(-c3ccc4c(c3)OCO4)coc2c(CN(C)C)c1O, the Potency was active: 2.06 µM.
